# From the supplement of paper PMC8728848
# Some of the results follow.
# B1: Mindin (Homo sapiens), Q9BUD6 (protein)
# chain: MENPSPAAALGKALCALLLATLGAAGQPLGGESICSARALAKYSITFTGKWSQTAFPKQYPLFRPPAQWSSLLGAAHSSDYSMWRKNQYVSNGLRDFAERGEAWALMKEIEAAGEALQSVHEVFSAPAVPSGTGQTSAELEVQRRHSLVSFVVRIVPSPDWFVGVDSLDLCDGDRWREQAALDLYPYDAGTDSGFTFSSPNFATIPQDTVTEITSSSPSHPANSFYYPRLKALPPIARVTLVRLRQSPRAFIPPAPVLPSRDNEIVDSASVPETPLDCEVSLWSSWGLCGGHCGRLGTKSRTRYVRVQPANNGSPCPELEEEAECVPDNCV
# Tests used:
# Assay in all cases: glycan array binding signal (z-score within array); higher = stronger binding
# Conditions in all cases: glycan notation: IUPAC condensed, linker removed
# Gal6S(b1-4)Glc = molecular target: Gal6S(b1-4)Glc
# How it was run: (§1)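 Arrays were curated from the Consortium for Functional Glycomics database, 3228 in total, and kept only where the protein sequence was available. Binding is expressed as a within-array Z-score. This score was averaged across arrays of the same protein sequence at different concentrations or buffers and across linkers, and negative values can be read as non-binding.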
# Gal6S(b1-4)Glc6S = molecular target: Gal6S(b1-4)Glc6S
# How it was run: as §1
# Gal6S(b1-4)GlcNAc = molecular target: Gal6S(b1-4)GlcNAc
# How it was run: as §1
# GalNAc(a1-3)Gal = molecular target: GalNAc(a1-3)Gal
# How it was run: as §1
# GalNAc(a1-3)GalNAc = molecular target: GalNAc(a1-3)GalNAc
# How it was run: as §1
# [1] = molecular target: GalNAc(b1-3)Gal(a1-4)Gal(b1-4)GlcNAc
# How it was run: as §1
# GalNAc(b1-3)GalNAc = molecular target: GalNAc(b1-3)GalNAc
# How it was run: as §1
# GalNAc(b1-4)GlcNAc = molecular target: GalNAc(b1-4)GlcNAc
# How it was run: as §1
# Glc(a1-4)Glc = molecular target: Glc(a1-4)Glc
# How it was run: as §1
# Glc(a1-6)Glc(a1-6)Glc = molecular target: Glc(a1-6)Glc(a1-6)Glc
# How it was run: as §1
# Glc(b1-4)Glc = molecular target: Glc(b1-4)Glc
# How it was run: as §1
# Glc(b1-6)Glc = molecular target: Glc(b1-6)Glc
# How it was run: as §1
# GlcA(b1-3)Gal = molecular target: GlcA(b1-3)Gal
# How it was run: as §1
# GlcA(b1-6)Gal = molecular target: GlcA(b1-6)Gal
# How it was run: as §1
# [2] = molecular target: GlcNAc(a1-3)Gal(b1-4)GlcNAc
# How it was run: as §1
# [3] = molecular target: GlcNAc(a1-6)Gal(b1-4)GlcNAc
# How it was run: as §1
# [4] = molecular target: GlcNAc(b1-2)Gal(b1-3)GalNAc
# How it was run: as §1
# [5] = molecular target: GlcNAc(b1-2)Man(a1-3)[GlcNAc(b1-2)Man(a1-6)]Man(b1-4)GlcNAc(b1-4)GlcNAc
# How it was run: as §1
# GlcNAc(b1-3)Gal = molecular target: GlcNAc(b1-3)Gal
# How it was run: as §1
# [6] = molecular target: GlcNAc(b1-3)Gal(b1-3)GalNAc
# How it was run: as §1
# GlcNAc(b1-3)Gal(b1-4)Glc = molecular target: GlcNAc(b1-3)Gal(b1-4)Glc
# How it was run: as §1
# [7] = molecular target: GlcNAc(b1-3)Gal(b1-4)GlcNAc
# How it was run: as §1
# [8] = molecular target: GlcNAc(b1-3)Gal(b1-4)GlcNAc(b1-3)Gal(b1-4)GlcNAc
# How it was run: as §1
# GlcNAc(b1-3)GalNAc = molecular target: GlcNAc(b1-3)GalNAc
# How it was run: as §1
# [9] = molecular target: GlcNAc(b1-3)[GlcNAc(b1-6)]Gal(b1-4)GlcNAc
# How it was run: as §1
# [10] = molecular target: GlcNAc(b1-3)[GlcNAc(b1-6)]GalNAc
# How it was run: as §1
# [11] = molecular target: GlcNAc(b1-3)[GlcNAc(b1-6)]GlcNAc(b1-4)GlcNAc
# How it was run: as §1
# [12] = molecular target: GlcNAc(b1-4)Gal(b1-4)GlcNAc
# How it was run: as §1
# [13] = molecular target: GlcNAc(b1-4)GlcNAc(b1-4)GlcNAc
# How it was run: as §1
# [14] = molecular target: GlcNAc(b1-4)GlcNAc(b1-4)GlcNAc(b1-4)GlcNAc(b1-4)GlcNAc
# How it was run: as §1
# [15] = molecular target: GlcNAc(b1-4)GlcNAc(b1-4)GlcNAc(b1-4)GlcNAc(b1-4)GlcNAc(b1-4)GlcNAc
# How it was run: as §1
# [16] = molecular target: GlcNAc(b1-4)[GlcNAc(b1-6)]GalNAc
# How it was run: as §1
# [17] = molecular target: GlcNAc(b1-6)Gal(b1-4)GlcNAc
# How it was run: as §1
# GlcNAc(b1-6)GalNAc = molecular target: GlcNAc(b1-6)GalNAc
# How it was run: as §1
# Kdn(a2-3)Gal(b1-3)GlcNAc = molecular target: Kdn(a2-3)Gal(b1-3)GlcNAc
# How it was run: as §1
# Kdn(a2-3)Gal(b1-4)GlcNAc = molecular target: Kdn(a2-3)Gal(b1-4)GlcNAc
# How it was run: as §1
# [18] = molecular target: Man(a1-2)Man(a1-2)Man(a1-3)Man
# How it was run: as §1
binder,measurement,setting,value
B1,glycan array binding signal (z-score),Gal6S(b1-4)Glc,0.355
same,glycan array binding signal (z-score),Gal6S(b1-4)Glc6S,0.464
same,glycan array binding signal (z-score),Gal6S(b1-4)GlcNAc,-0.146
same,glycan array binding signal (z-score),GalNAc(a1-3)Gal,-0.154
same,glycan array binding signal (z-score),GalNAc(a1-3)GalNAc,-0.322
same,glycan array binding signal (z-score),[1],-0.167
same,glycan array binding signal (z-score),GalNAc(b1-3)GalNAc,-0.245
same,glycan array binding signal (z-score),GalNAc(b1-4)GlcNAc,-0.065
same,glycan array binding signal (z-score),Glc(a1-4)Glc,-0.337
same,glycan array binding signal (z-score),Glc(a1-6)Glc(a1-6)Glc,-0.402
same,glycan array binding signal (z-score),Glc(b1-4)Glc,-0.387
same,glycan array binding signal (z-score),Glc(b1-6)Glc,-0.355
same,glycan array binding signal (z-score),GlcA(b1-3)Gal,-0.309
same,glycan array binding signal (z-score),GlcA(b1-6)Gal,-0.329
same,glycan array binding signal (z-score),[2],-0.347
same,glycan array binding signal (z-score),[3],0.607
same,glycan array binding signal (z-score),[4],-0.345
same,glycan array binding signal (z-score),[5],-0.265
same,glycan array binding signal (z-score),GlcNAc(b1-3)Gal,-0.214
same,glycan array binding signal (z-score),[6],-0.282
same,glycan array binding signal (z-score),GlcNAc(b1-3)Gal(b1-4)Glc,-0.403
same,glycan array binding signal (z-score),[7],-0.239
same,glycan array binding signal (z-score),[8],-0.352
same,glycan array binding signal (z-score),GlcNAc(b1-3)GalNAc,-0.31
same,glycan array binding signal (z-score),[9],-0.324
same,glycan array binding signal (z-score),[10],-0.343
same,glycan array binding signal (z-score),[11],-0.276
same,glycan array binding signal (z-score),[12],-0.307
same,glycan array binding signal (z-score),[13],-0.213
same,glycan array binding signal (z-score),[14],-0.397
same,glycan array binding signal (z-score),[15],-0.209
same,glycan array binding signal (z-score),[16],-0.326
same,glycan array binding signal (z-score),[17],0.021
same,glycan array binding signal (z-score),GlcNAc(b1-6)GalNAc,-0.292
same,glycan array binding signal (z-score),Kdn(a2-3)Gal(b1-3)GlcNAc,-0.342
same,glycan array binding signal (z-score),Kdn(a2-3)Gal(b1-4)GlcNAc,-0.327
same,glycan array binding signal (z-score),[18],-0.085
